# Measurements published in the supplement of paper PMC8728848.
# The other results are listed elsewhere or left out.
# B1: Neuropilin-1 (Rattus norvegicus), Q9QWJ9 (protein)
# chain: MERGLPLLCATLALALALAGAFRSDKCGGTIKIENPGYLTSPGYPHSYHPSEKCEWLIQAPEPYQRIMINFNPHFDLEDRDCKYDYVEVIDGENEGGRLWGKFCGKIAPSPVVSSGPFLFIKFVSDYETHGAGFSIRYEIFKRGPECSQNYTAPTGVIKSPGFPEKYPNSLECTYIIFAPKMSEIILEFESFDLEQDSNPPGGVFCRYDRLEIWDGFPEVGPHIGRYCGQKTPGRIRSSSGILSMVFYTDSAIAKEGFSANYSVLQSSISEDFKCMEALGMESGEIHSDQITASSQYGTNWSVERSRLNYPENGWTPGEDSYREWIQVDLGLLRFVTAVGTQGAISKETKKKYYVKTYRVDISSNGEDWITLKEGNKAIIFQGNTNPTDVVFGVFPKPLITRFVRIKPASWETGISMRFEVYGCKITDYPCSGMLGMVSGLISDSQITASNQGDRNWMPENIRLVTSRTGWALPPSPHPYINEWLQVDLGDEKIVRGVIIQGGKHRENKVFMRKFKIAYSNNGSDWKMIMDDSKRKAKSFEGNNNYDTPELRAFTPLSTRFIRIYPERATHSGLGLRMELLGCEVEVPTAGPTTPNGNPVDECDDDQANCHSGTGDDFQLTGGTTVLATEKPTIIDSTIQSEFPTYGFNCEFGWGSHKTFCHWEHDSHAQLRWRVLTSKTGPIQDHTGDGNFIYSQADENQKGKVARLVSPVVYSQSSAHCMTFWYHMSGSHVGTLRVKLHYQKPEEYDQLVWMVVGHQGDHWKEGRVLLHKSLKLYQVIFEGEIGKGNLGGIAVDDISINNHIPQEDCAKPTDLDKKNTEIKIDETGSTPGYEEGKGDKNISRKPGNVLKTLDPILITIIAMSALGVLLGAVCGVVLYCACWHNGMSERNLSALENYNFELVDGVKLKKDKLNPQSNYSEA
# Tests used:
# Experiment in all cases: glycan array binding signal (z-score within array); higher = stronger binding
# Details in all cases: glycan notation: IUPAC condensed, linker removed
# [1] = biological target: Gal(b1-4)GlcNAc(b1-6)Gal(b1-4)GlcNAc
# Outline: (§1)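 The binding signal is a Z-score computed within each array. Data were drawn from 3228 arrays in the Consortium for Functional Glycomics database, restricted to those with a known protein sequence. Scores were averaged over arrays of the same protein sequence at different concentrations or buffers, and over linkers, and negative values can be taken as non-binding.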
# [2] = biological target: Gal(b1-4)GlcNAc(b1-6)Gal(b1-4)GlcNAc(b1-6)GalNAc
# Outline: as §1
# [3] = biological target: Gal(b1-4)GlcNAc(b1-6)GalNAc
# Outline: as §1
# [4] = biological target: Gal(b1-4)GlcNAc(b1-6)[Gal(b1-3)]GalNAc
# Outline: as §1
# Gal3S(b1-3)GalNAc = biological target: Gal3S(b1-3)GalNAc
# Outline: as §1
# Gal3S(b1-3)GlcNAc = biological target: Gal3S(b1-3)GlcNAc
# Outline: as §1
# [5] = biological target: Gal3S(b1-3)[Fuc(a1-4)]GlcNAc
# Outline: as §1
# Gal3S(b1-4)Glc = biological target: Gal3S(b1-4)Glc
# Outline: as §1
# Gal3S(b1-4)Glc6S = biological target: Gal3S(b1-4)Glc6S
# Outline: as §1
# Gal3S(b1-4)GlcNAc = biological target: Gal3S(b1-4)GlcNAc
# Outline: as §1
# Gal3S(b1-4)GlcNAc6S = biological target: Gal3S(b1-4)GlcNAc6S
# Outline: as §1
# [6] = biological target: Gal3S(b1-4)[Fuc(a1-3)]Glc
# Outline: as §1
# Gal3S4S(b1-4)GlcNAc = biological target: Gal3S4S(b1-4)GlcNAc
# Outline: as §1
# Gal3S6S(b1-4)GlcNAc = biological target: Gal3S6S(b1-4)GlcNAc
# Outline: as §1
# Gal3S6S(b1-4)GlcNAc6S = biological target: Gal3S6S(b1-4)GlcNAc6S
# Outline: as §1
# Gal4S(b1-4)GlcNAc = biological target: Gal4S(b1-4)GlcNAc
# Outline: as §1
# Gal4S6S(b1-4)GlcNAc = biological target: Gal4S6S(b1-4)GlcNAc
# Outline: as §1
# Gal6S(b1-4)Glc = biological target: Gal6S(b1-4)Glc
# Outline: as §1
# Gal6S(b1-4)Glc6S = biological target: Gal6S(b1-4)Glc6S
# Outline: as §1
# Gal6S(b1-4)GlcNAc = biological target: Gal6S(b1-4)GlcNAc
# Outline: as §1
# Gal6S(b1-4)GlcNAc6S = biological target: Gal6S(b1-4)GlcNAc6S
# Outline: as §1
# GalNAc(a1-3)Gal = biological target: GalNAc(a1-3)Gal
# Outline: as §1
# GalNAc(a1-3)GalNAc = biological target: GalNAc(a1-3)GalNAc
# Outline: as §1
# GalNAc(b1-3)Gal = biological target: GalNAc(b1-3)Gal
# Outline: as §1
# [7] = biological target: GalNAc(b1-3)Gal(a1-4)Gal(b1-4)GlcNAc
# Outline: as §1
# [8] = biological target: GalNAc(b1-3)Gal(a1-4)Gal(b1-4)GlcNAc(b1-3)Gal(b1-4)Glc
# Outline: as §1
# GalNAc(b1-3)GalNAc = biological target: GalNAc(b1-3)GalNAc
# Outline: as §1
# GalNAc(b1-4)GlcNAc = biological target: GalNAc(b1-4)GlcNAc
# Outline: as §1
# [9] = biological target: GalNAc(b1-4)GlcNAc(b1-2)Man(a1-3)[GalNAc(b1-4)GlcNAc(b1-2)Man(a1-6)]Man(b1-4)GlcNAc(b1-4)GlcNAc
# Outline: as §1
# Glc(a1-4)Glc = biological target: Glc(a1-4)Glc
# Outline: as §1
binder,measurement,setting,value
B1,glycan array binding signal (z-score),[1],-0.253
same,glycan array binding signal (z-score),[2],-0.128
same,glycan array binding signal (z-score),[3],-0.12
same,glycan array binding signal (z-score),[4],-0.299
same,glycan array binding signal (z-score),Gal3S(b1-3)GalNAc,-0.455
same,glycan array binding signal (z-score),Gal3S(b1-3)GlcNAc,-0.063
same,glycan array binding signal (z-score),[5],-0.223
same,glycan array binding signal (z-score),Gal3S(b1-4)Glc,-0.376
same,glycan array binding signal (z-score),Gal3S(b1-4)Glc6S,-0.212
same,glycan array binding signal (z-score),Gal3S(b1-4)GlcNAc,-0.211
same,glycan array binding signal (z-score),Gal3S(b1-4)GlcNAc6S,-0.201
same,glycan array binding signal (z-score),[6],-0.257
same,glycan array binding signal (z-score),Gal3S4S(b1-4)GlcNAc,-0.43
same,glycan array binding signal (z-score),Gal3S6S(b1-4)GlcNAc,-0.279
same,glycan array binding signal (z-score),Gal3S6S(b1-4)GlcNAc6S,-0.271
same,glycan array binding signal (z-score),Gal4S(b1-4)GlcNAc,-0.185
same,glycan array binding signal (z-score),Gal4S6S(b1-4)GlcNAc,-0.1
same,glycan array binding signal (z-score),Gal6S(b1-4)Glc,-0.192
same,glycan array binding signal (z-score),Gal6S(b1-4)Glc6S,0.162
same,glycan array binding signal (z-score),Gal6S(b1-4)GlcNAc,-0.348
same,glycan array binding signal (z-score),Gal6S(b1-4)GlcNAc6S,-0.113
same,glycan array binding signal (z-score),GalNAc(a1-3)Gal,-0.081
same,glycan array binding signal (z-score),GalNAc(a1-3)GalNAc,-0.161
same,glycan array binding signal (z-score),GalNAc(b1-3)Gal,-0.31
same,glycan array binding signal (z-score),[7],-0.33
same,glycan array binding signal (z-score),[8],-0.285
same,glycan array binding signal (z-score),GalNAc(b1-3)GalNAc,-0.27
same,glycan array binding signal (z-score),GalNAc(b1-4)GlcNAc,-0.273
same,glycan array binding signal (z-score),[9],1.98
same,glycan array binding signal (z-score),Glc(a1-4)Glc,-0.289
